± gives the standard error. This sample is rich in variants without activity.
B1: glmS ribozyme (parent)
chain: AUAAAAGCGCCAGAACUACAGAAAUGUAGUUGACGAGGAGGAGGUUUAUCGAAUUUUCGGCGGAUGCCUCCAAA

Assays:
Settings in all cases: with glucosamine-6-phosphate
glucosamine-6-phosphate [1] = variants of: B1; assay: self-cleavage kobs at 40 uM GlcN6P; higher = faster cleavage; RNA array
Method in brief: (§1)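 Glucosamine-6-phosphate (40 μM to 10 mM) in HEPES/KCl/Mg(OAc)2 buffer was flowed over sequenced MiSeq chips, and tiles were imaged over ~14 h. Barcoded ribozyme variants there had been transcribed in situ by E. coli RNA polymerase and were tracked through a hybridised Cy3 probe at 37 °C. One- or two-exponential decay fits to per-tile medians, normalised to baseline and to non-cleaving reference variants, gave kobs. kcat and KM came from weighted Michaelis–Menten fits across concentrations.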

glucosamine-6-phosphate [2] = variants of: B1; assay: self-cleavage kobs at 10000 uM GlcN6P; higher = faster cleavage; RNA array
Method in brief: as §1

glucosamine-6-phosphate [3] = variants of: B1; assay: self-cleavage kobs at 640 uM GlcN6P; higher = faster cleavage; RNA array
Method in brief: as §1

glucosamine-6-phosphate [4] = variants of: B1; assay: self-cleavage kobs at 2500 uM GlcN6P; higher = faster cleavage; RNA array
Method in brief: as §1

glucosamine-6-phosphate [5] = variants of: B1; assay: self-cleavage kobs at 160 uM GlcN6P; higher = faster cleavage; RNA array
Method in brief: as §1

| Variant | self-cleavage kobs at 40 uM GlcN6P (glucosamine-6-phosphate [1]) [s⁻¹] | self-cleavage kobs at 10000 uM GlcN6P (glucosamine-6-phosphate [2]) [s⁻¹] | self-cleavage kobs at 640 uM GlcN6P (glucosamine-6-phosphate [3]) [s⁻¹] | self-cleavage kobs at 2500 uM GlcN6P (glucosamine-6-phosphate [4]) [s⁻¹] | self-cleavage kobs at 160 uM GlcN6P (glucosamine-6-phosphate [5]) [s⁻¹] |
| --- | --- | --- | --- | --- | --- |
| G62U G66U C67U | < 1e-05 | < 1e-05 | – | – | – |
| G7C A33C G51A G62U | – | – | < 1e-05 | – | – |
| C8G G13C A14U A42U G51C C61U U69G | – | < 1e-05 | < 1e-05 | < 1e-05 | – |
| A6U C61G C67A | – | – | 0.000106 ± 3.9e-05 | 0.00149 ± 0.00065 | – |
| A64G C70A | < 1e-05 | – | – | – | – |
| A6U A14U U45C | – | – | < 1e-05 | – | – |
| G7U G29C U56G G62A | – | – | < 1e-05 | – | – |
| C8U G9A A15U A39G | – | – | < 1e-05 | < 1e-05 | – |
| C8G G35U A42U | – | – | < 1e-05 | < 1e-05 | < 1e-05 |
| C8G A14C G29U A52G | – | – | < 1e-05 | – | – |
| A6G G59C | – | – | < 1e-05 | < 1e-05 | < 1e-05 |
| A64C C70G | < 1e-05 | < 1e-05 | – | – | < 1e-05 |
| A64C C70A | < 1e-05 | < 1e-05 | – | – | – |
| A6U G63A | – | < 1e-05 | < 1e-05 | – | < 1e-05 |
| A6U G43U C70G | – | – | < 1e-05 | – | – |
| C8A U46G | – | – | < 1e-05 | < 1e-05 | < 1e-05 |
| A6C G37C G62C | – | – | < 1e-05 | – | – |
| G7U A33U A48U C67U C68U | – | – | < 1e-05 | – | – |
| G7U U49C | – | < 1e-05 | < 1e-05 | < 1e-05 | < 1e-05 |
| C8U G35A A42G | – | < 1e-05 | < 1e-05 | – | < 1e-05 |

| Variant | self-cleavage kobs at 40 uM GlcN6P (glucosamine-6-phosphate [1]) [s⁻¹] | self-cleavage kobs at 10000 uM GlcN6P (glucosamine-6-phosphate [2]) [s⁻¹] | self-cleavage kobs at 640 uM GlcN6P (glucosamine-6-phosphate [3]) [s⁻¹] | self-cleavage kobs at 2500 uM GlcN6P (glucosamine-6-phosphate [4]) [s⁻¹] | self-cleavage kobs at 160 uM GlcN6P (glucosamine-6-phosphate [5]) [s⁻¹] |
| --- | --- | --- | --- | --- | --- |
| A6G G37A G41A | – | < 1e-05 | < 1e-05 | < 1e-05 | – |
| A6G U46A C50U A53U U57G | – | – | < 1e-05 | < 1e-05 | < 1e-05 |
| G7A A15G | – | – | < 1e-05 | – | < 1e-05 |
| G9A G38A G51A | – | – | < 1e-05 | < 1e-05 | < 1e-05 |
| A6G A12U A53G U56A G66U | – | – | < 1e-05 | – | – |
| G7C G32C A42G C61U A64G | – | – | < 1e-05 | < 1e-05 | – |
| C8U G35C A36C G41U U49C | – | – | < 1e-05 | < 1e-05 | – |
| C8G G9U A12U U30G A64C | – | – | < 1e-05 | – | < 1e-05 |
| G9A G38U C58G G60U | – | – | < 1e-05 | < 1e-05 | – |
| C8U G9A G21U A36G U57C | – | – | < 1e-05 | – | – |
| G7C G41C A52U | – | – | < 1e-05 | – | – |
| A6G A36C G43U A64G | – | – | < 1e-05 | – | – |
| A6C A33U A36G G41A A53U U57C | – | – | < 1e-05 | – | < 1e-05 |
| C8A G41U G62A | – | – | < 1e-05 | < 1e-05 | – |
| G7C A15U U55G G60A | – | – | < 1e-05 | < 1e-05 | < 1e-05 |
| G9C A39C G41A U46C U55G | – | – | < 1e-05 | – | < 1e-05 |
| G62U G66A | < 1e-05 | – | – | – | – |
| C8U C50G G51A A64C | – | – | < 1e-05 | – | – |
| G7C U30G G43A | – | – | < 1e-05 | – | – |
| A6G G38A C58A G66C | – | – | < 1e-05 | – | – |

| Variant | self-cleavage kobs at 40 uM GlcN6P (glucosamine-6-phosphate [1]) [s⁻¹] | self-cleavage kobs at 10000 uM GlcN6P (glucosamine-6-phosphate [2]) [s⁻¹] | self-cleavage kobs at 640 uM GlcN6P (glucosamine-6-phosphate [3]) [s⁻¹] | self-cleavage kobs at 2500 uM GlcN6P (glucosamine-6-phosphate [4]) [s⁻¹] | self-cleavage kobs at 160 uM GlcN6P (glucosamine-6-phosphate [5]) [s⁻¹] |
| --- | --- | --- | --- | --- | --- |
| A64C C67A | < 1e-05 | < 1e-05 | – | < 1e-05 | – |
| A6U A33G U54A | – | – | < 1e-05 | – | – |
| A6C G43A A64U | – | – | < 1e-05 | – | – |
| C8G A15U G51U C71U | – | – | < 1e-05 | – | – |
| G7U G44C G59A C70G | – | – | < 1e-05 | < 1e-05 | – |
| G62A U65C | < 1e-05 | < 1e-05 | < 1e-05 | < 1e-05 | < 1e-05 |
| A6G U30G G43C G60U C71G | – | – | < 1e-05 | – | – |
| G9A U47A | – | – | < 1e-05 | < 1e-05 | < 1e-05 |
| A6U U55G | – | 0.000416 ± 6.4e-05 | 4.48e-05 ± 1e-05 | 0.000118 ± 1.9e-05 | – |
| G7U G60A | – | < 1e-05 | < 1e-05 | < 1e-05 | – |
| G7U A36G U56C | – | – | < 1e-05 | – | < 1e-05 |
| G7A G32A U65G | – | – | < 1e-05 | – | – |
| C8G U30G G59C | – | – | < 1e-05 | < 1e-05 | – |
| A6U A39U G43U A48G C71U | – | – | < 1e-05 | < 1e-05 | < 1e-05 |
| G7C C34A G43U G44U U46G | – | – | < 1e-05 | – | – |
| G63C C68G | < 1e-05 | < 1e-05 | – | – | – |
| A6C A52C C68U | – | – | < 1e-05 | < 1e-05 | – |
| G9A A14U G63U | – | – | < 1e-05 | < 1e-05 | – |
